Binding signal (log2 normalized intensity) data for 72 sequences are collected here from paper PMC10726135.

Some of the results follow. At the low end of the ranking the order means little. The protein was read in a cell extract, so binding may be indirect.

The target in this assay is T1, HNF4alpha2 (COS-7 nuclear extract) (UniProt P41235).
T1 sequence: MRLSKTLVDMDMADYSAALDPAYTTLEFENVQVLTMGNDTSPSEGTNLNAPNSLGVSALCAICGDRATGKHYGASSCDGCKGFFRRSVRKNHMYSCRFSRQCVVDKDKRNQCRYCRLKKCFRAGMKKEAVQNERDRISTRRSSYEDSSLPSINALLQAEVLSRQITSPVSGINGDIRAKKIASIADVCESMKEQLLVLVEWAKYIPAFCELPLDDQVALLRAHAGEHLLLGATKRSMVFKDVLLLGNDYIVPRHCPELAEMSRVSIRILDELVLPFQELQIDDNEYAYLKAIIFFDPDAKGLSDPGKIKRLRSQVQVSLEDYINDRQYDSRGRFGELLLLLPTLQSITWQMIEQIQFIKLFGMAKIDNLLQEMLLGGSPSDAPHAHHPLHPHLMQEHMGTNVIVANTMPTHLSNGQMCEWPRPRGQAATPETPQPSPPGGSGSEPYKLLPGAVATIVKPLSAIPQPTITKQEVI
Put plainly: protein-binding microarray. To be noted: COS-7 nuclear extract on double-stranded Agilent 4x180k PBM; binding buffer, salt, pH and temperature not given; high values mean tight binding; double strand, one strand shown; sequences stand for … in …GCCTAGGGAGATTAGAGTATCGGTCGA
As for TAATGACTGATAATTGAAAACAGAGATTGG, the binding signal (log2 normalized intensity) came out at 0.904.
Take CGGCGCCGGACGCGTCCTCGGCTCTGCGCA: the binding signal (log2 normalized intensity) is -1.15.
As for TTGTATGCTTAACTATGTTTATCAGAGCAA, the figure is -1.14; as for GATGCCTAGGATTCTTGCATGATCGATCAC, 1.7; as for TTTAACCTCCCTGCAGGTCTCTAAATGGTA, -0.0968.
As for GGCCTTTGGAATCAAACAGATGTAGACATT, the figure is 2.
Under ACTGCATTCCCTTTCTCCTCCCCTCCCCTC stands 4.31; under TTGGAGTTGAGGTCAGACATGGCTGTATGT, 1.81.
Take GTCTAATTGTGCTGAGAGAGTCCTTGTTTG: the binding signal (log2 normalized intensity) was 1.63.
Under AGTGTGTAAGTATGCTCACTGACCTCTGCC stands 3.34.
Under TAGCAATAATCTTTGAAATCTGCAAATAGA stands -0.0917; under TGGATGTTTCCTTTGAACTCTGCATCCAGG, 2.14.
Under ACAAATGAAAGAGCTCAAATGACAGAACAG stands -1.14; under CAGTAGTTCTCCTTTCTGCCCTTTGAAGCA, 2.88; under AGGAACTTGTTGGTAACCGGAGCAAAGGTT, 3.05.
On to TCTCCTCTGCCACTGTATCAGGGAGATAGT, for which the binding signal (log2 normalized intensity) was -1.1.
As for GCAGAATTTCTTTTAATGTGTGCTTTCAGG, the figure is 1.58; as for CCAGATAAGACTATCTCATGACAGACCTAA, -1.19.
As for TTGAACTGCTGGGGGTAAAGTGGATTGCTG, the figure is 0.207; as for GGTATGGATTCTGGGACCCACCCACCTATG, 0.346.
Turning to CCAGACAGGAGGATTCCTGATGCGTTCAAG, the binding signal (log2 normalized intensity) was -1.05.
Consider AGCCTGTGGCCAGGCTGCGTTTCAAAGCCA, for which the binding signal (log2 normalized intensity) was -1.22.
As for CAACATTGTCCAGCAGACACGGGCAGGTGA, the binding signal (log2 normalized intensity) is -1.04.
ACAGCAACTCAGGCAACAATGCCTTGTGTA: the binding signal (log2 normalized intensity) was -1.07.
As for GATTCTTACAGGCAATTGATAATGATGTTT, the figure is 1.53; as for CCCTTCGCTCCCCGACCTCCTGCTGCAGCT, 1.88; as for AGAAGAAAGCCCTTTTTGGAATGTGTTTGC, 1.2.
As for AAGGTTGCAGAGTGTCCCACTTCAGGCAGG, the figure is -1.13; as for GCTGATCCTATTTACCTGCCTGTGCTGTGG, 0.717; as for AAAACAGCATGCGGTAAAGAAGCCAGCCAA, -0.869.
Under CAGTATACTGACTTATCAGGGTTATTTGCT stands -0.769.
Regarding TTCTTCTGCTTCCCTAGGGAGGTGATTGGT, the binding signal (log2 normalized intensity) is 1.52.
As for CCTTATCAGCGGCCCTGTGCTGCCCCCGAT, the figure is 4.71; as for AAGAGTGAATTCTGCAGCAGATGGCCAGCC, -1.19.
On to CAACATAGTGATTTAGGCTTTTGGGCCCTG, for which the binding signal (log2 normalized intensity) was 0.609.
Regarding AGACACACTCAGGCACTGGGATCCAAAGTT, the binding signal (log2 normalized intensity) was -1.08.
Under TCAGTATGAATGCCTTGGCCTCTGCAGACA stands -0.694; under GTTGTCTGATGGCTGCTTCACACAAACATC, -1.12.
Take ATAAAGTGATTAGTGCAAGAATCCAAGAAT: the binding signal (log2 normalized intensity) was -0.966.
As for CTCCCTGAAGAAACAGTCTTTGCTTTTTGA, the figure is 0.962; as for TAAAGTCCAAATTCCTTGGAATACATGGAA, 1.78; as for CTGTCTAGGCCAGAGTTCACTTTCCTCTCA, 0.906.
As for AGATAGGACAGTGGTCTTTATGACTTGGGT, the figure is 1.68; as for GTCTTACTAAATGCAGCCTTGGGCAAGTTA, -0.483.
As for TTGGGCCCTGTCTGATAAGGGTGTTTGTCC, the figure is 1.25; as for CTTCATATCAGTAAACCCCAATCAGGTTTC, 1.49; as for AAAACTGGTCAATATCCACACAAACCCAGT, -1.01.
Consider GCAGGAGCTGGCCTGGTAGGACAGGGATCC, for which the binding signal (log2 normalized intensity) is -1.11.
As for GACTTTAACCCCCTTGTCTTCCTCAAATTA, the figure is 2.39; as for CATTCAGCACCAGGGATAGCGCCCACACTG, -1.07.
As for GCTTATGTTTGCAAGTCGAGCAAGGTTCAG, the figure is 2.32; as for AATTCCTTTCAAACTGTATTGCTCAATGTC, 0.914; as for TGATATTGTGAAATATATATTTGCTCTTCA, 0.828.
Under GGTTAATTCACATCTCCAGTTCCAAAGTCC stands 5.54; under GACCTTTGGACAGGGTGACGTCATTGGAAA, 6.01; under GCAGAGGGAGGACAAAGTTCTGTCCTTTGT, 2.45.
For the sequence CGGTGTGAGTGGTCCTTATCAGCATGGGTC, the binding signal (log2 normalized intensity) amounted to 1.84.
In the case of ACAGAAGCCAGAGGCAGCAAGGTCAAAGTG, the binding signal (log2 normalized intensity) came out at 1.43.
As for TCCACTGGACAGCAGCTACATAAGGGTAGA, the figure is -1.07; as for AGCCGGCCTCTTAACAGATGAGGACATTTC, -0.852; as for TCTGGACTTGGATCAGCCTGATTGAGTTCA, 0.327.
As for TTCACTAGACCTAGATAAGGGAGATGAAAG, the figure is -1.11; as for TGCTCTCTCATGCCCTTTGCCTCCCTGCAT, 3.45.
As to GGGGAAAGTCCACGTGAGAGGGTCGTGATC, the binding signal (log2 normalized intensity) amounted to 1.69.
Consider TTCAGATGCAACACAGGGGGAGGAATGCTG, for which the binding signal (log2 normalized intensity) is -1.16.
Consider GGAAATCATCAGCACATTGGTGAGAATGGA, for which the binding signal (log2 normalized intensity) is 0.774.
As for TAGGGGGATTCTGGCTAAACCAGCCTAACA, the figure is -0.974; as for CTAGGGGAAACTGCTTTGGTTAATCATTAG, 0.451; as for AACACAGAACTAGCCAGACCTGTTCCTCTG, -1.14.
As for GGCTGGAGAGGAGGTTATCTCGGGGCTGGC, the figure is -1.17; as for TCCGCATCCTCAAGAAACACAGAACTATCA, -1.06.
Under GAAGTTCTAGGAGCCTGGACATTTGCCACC stands -0.732.
